Among all 43,000 compounds or so, about 200 (0.47%) were called active. Another 12% or so got no clear call; they are omitted. Calls follow the shape of the dose curve; as a rule, active = well fitted cell-killing curve with a large enough effect; inconclusive = small, poorly fitted or top-dose-only effect, or effect the other way; inactive = flat fitted curve, though single readings scatter. This is one part of the list.
% is scaled to controls: 0 for no effect and ±100 for the full control effect.

A short description of this assay: Cell viability qHTS assay in S16 Pmp22-F2sN cells. Also: nearly all actives have a fitted effect of over 65% in size. The following applies: S16 Pmp22-F2sN Schwann cells (luciferase reporters placed in the Pmp22 gene) viability, CellTiter-Glo, 24 h; series mostly up to 57.5 µM; activity change, negative = cytotoxicity: at the top concentration. The procedure, abridged:
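Rat S16 Schwann reporter line, 24 h treatment with library compounds delivered at 23 nL per well. Cell viability by CellTiter-Glo luminescence.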
(In general: qHTS replaces the single test concentration by a dilution series.)
Consider `CCN(c1ccccc1)S(=O)(=O)c1nnc(NC(=O)C(C)(C)C)s1`, for which the “activity change, negative = cytotoxicity” value is inactive: 2.37%.

`CCN1CCc2nc3sc(C(=O)c4ccccc4)c(N)c3cc2C1`: the “activity change, negative = cytotoxicity” value is inactive: -13.7%.

In the case of `COC(=O)c1ccc2c(c1)N(Cc1cc(C)ccc1C)C(=O)c1ccccc1S2`, the “activity change, negative = cytotoxicity” value was inactive: 12.4%.

As for `O=C(CS(=O)(=O)c1cccc2nsnc12)Nc1ccc(F)cc1`, the “activity change, negative = cytotoxicity” value was inactive: -5.62%.

Take `CCCN(CCC)CCNC(=O)Cn1cc2c(n1)-c1c(oc(C(=O)N3CCCC3)c1C)CC2`: the “activity change, negative = cytotoxicity” value was inactive: 6%.

On to `Cc1cccc(-c2nnn3c2nc(NCCc2ccc(S(N)(=O)=O)cc2)c2ccccc23)c1`, for which the “activity change, negative = cytotoxicity” value was inactive: 15.1%.

With `COc1ccc(OC)c(NC(=O)CSc2cn(CC(=O)N3CCCCCC3)c3ccccc23)c1`, the “activity change, negative = cytotoxicity” value is inactive: -21%.

For `Cc1cc(NCc2ccccc2Cl)n2cnnc2n1`, the “activity change, negative = cytotoxicity” value is inactive: -18.3%.

For `Cc1ccc(NC(=O)CSc2nc3ccccc3nc2Cc2ccccc2)c(C)c1`, the “activity change, negative = cytotoxicity” value was inactive: -3.08%.

In the case of `CCOc1ccc(Cn2c(-c3ccc(OCC)c(OC)c3)nc3ccccc32)cc1OC`, the “activity change, negative = cytotoxicity” value was inactive: -16.1%.

`COCCNC(=O)CSc1nc2cc3c(cc2c(=O)n1CCCC(=O)NCc1ccc(OC)cc1)OCO3`: the “activity change, negative = cytotoxicity” value was inactive: 2.95%.

Turning to `COCCNC(=O)c1ccc2c(c1)N(Cc1cc(C)ccc1C)C(=O)c1ccccc1S2(=O)=O`, the “activity change, negative = cytotoxicity” value was inactive: -7.14%.

As for `COc1ccc(S(=O)(=O)N2CCN(c3ccc(Cl)c(Cl)c3)CC2)c2ccccc12`, the “activity change, negative = cytotoxicity” value was inactive: 3.1%.

`CCSc1ncc(Cl)c(C(=O)N(Cc2ccc(N(C)C)cc2)Cc2ccco2)n1`: the “activity change, negative = cytotoxicity” value is inactive: -1.16%.

As to `CC1=C(C(=O)Nc2cccnc2)C(c2ccccc2)n2nc(SCc3ccccc3Cl)nc2N1` (configuration not stated), the “activity change, negative = cytotoxicity” value is inactive: 8.58%.

As for `COc1ccc(C)cc1NC(=O)C1CCN(S(=O)(=O)c2ccc3c(c2)CCCN3C(C)=O)CC1`, the “activity change, negative = cytotoxicity” value was inactive: -6.1%.

Turning to `O=C(Nc1ccc(N2CCN(c3ccc(F)cc3)CC2)c(C(=O)O)c1)c1ccccc1F`, the “activity change, negative = cytotoxicity” value was inactive: 6.4%.

For the molecule `CCCCOc1ccc(Cn2c(=O)oc3ccc(C)cc32)cc1`, the “activity change, negative = cytotoxicity” value is inactive: 0.123%.

For the molecule `CCOC(=O)c1ccc(NC(=O)CSc2nc3ccccc3c(=O)n2CCNC(C)=O)cc1`, the “activity change, negative = cytotoxicity” value is inactive: 3.76%.

On to `CCc1ccc(NC(=O)CN2C(=O)C(c3ccc(F)cc3)=NC2(C)C)cc1`, for which the “activity change, negative = cytotoxicity” value is inactive: 9.97%.

Regarding `Cc1ccc(CCNC(=O)Cn2ncc3c([nH]c4ccc(C)cc43)c2=O)cc1`, the “activity change, negative = cytotoxicity” value was inactive: -1.57%.

Consider `COc1ccc(S(=O)(=O)Nc2ccc3oc4c(c3c2)C(=O)CC(C)(C)C4)cc1`, for which the “activity change, negative = cytotoxicity” value was inactive: -1.86%.

In the case of `COc1cccc(C(=O)Nc2cccc(NC(=O)c3ccc(Cl)cc3Cl)c2)c1`, the “activity change, negative = cytotoxicity” value was inactive: -2.29%.

Turning to `CCCCN(C)C(=O)Cn1c(C2CC(=O)N(c3ccc(C)cc3)C2)nc2ccccc21` (configuration not stated), the “activity change, negative = cytotoxicity” value is inactive: 13.7%.

For the molecule `CCOc1ccccc1NC(=O)c1c(NCc2ccc(C)o2)sc2c1CCC(C)C2` (configuration not stated), the “activity change, negative = cytotoxicity” value was inactive: 13.2%.

In the case of `Cc1cccc(NS(=O)(=O)c2ccc3c(c2)[C@H]2C=CC[C@H]2[C@@H](c2ccc(F)cc2)N3)c1`, the “activity change, negative = cytotoxicity” value is inactive: -12.7%.

Consider `CCc1ccc(C(=O)c2cn(CC(=O)Nc3cc(OC)ccc3OC)c3ccc(C)cc3c2=O)cc1`, for which the “activity change, negative = cytotoxicity” value was inactive: 6.85%.

`CCCOc1ccc(-c2nn(-c3ccccc3)cc2C2NC(=O)NC(C)=C2C(=O)OC)cc1` (configuration not stated): the “activity change, negative = cytotoxicity” value is inactive: 3.94%.

In the case of `Cc1ccc(C)c(NC(=O)Cn2c(=O)nc(-c3ccccc3)c3ccccc32)c1`, the “activity change, negative = cytotoxicity” value is inactive: 6.03%.

For `CCC(C)Nc1sc(S(=O)(=O)CC)nc1S(=O)(=O)c1ccc(C)cc1` (configuration not stated), the “activity change, negative = cytotoxicity” value is inactive: -1.44%.

Take `CCOc1ccc(CNC(=O)CCCn2nc(C)c3sc4ccccc4c3c2=O)cc1`: the “activity change, negative = cytotoxicity” value is inactive: 2.25%.

As for `COC(=O)c1cc(S(=O)(=O)NCC2CCN(Cc3ccc(C)cc3)CC2)cn1C`, the “activity change, negative = cytotoxicity” value is inactive: 13.6%.

For the molecule `COc1ccc(-c2nc(CCNC(=O)c3cccs3)cs2)cc1`, the “activity change, negative = cytotoxicity” value was inactive: -16%.

As to `CNC(=O)Cn1nc(-c2ccc(Cl)cc2)c2ccccc2c1=O`, the “activity change, negative = cytotoxicity” value is inactive: 1.07%.

Regarding `CS(=O)(=O)N(CC(=O)Nc1ccc(Br)cc1)c1ccccc1Br`, the “activity change, negative = cytotoxicity” value is inactive: -17.2%.

For `Cc1nn(C)c2c1c(-c1ccccc1)cc(=O)n2Cc1ccccc1Cl`, the “activity change, negative = cytotoxicity” value was inactive: -5.33%.

On to `COc1cccc(N2CCN(C(=O)C3CCN(S(=O)(=O)c4cccc5nonc45)CC3)CC2)c1`, for which the “activity change, negative = cytotoxicity” value is inactive: -4.66%.

On to `Cc1ccc(CN(C(=O)COc2ccc(Cl)cc2)c2ccccn2)o1`, for which the “activity change, negative = cytotoxicity” value was inactive: -1.46%.

`Cc1cc(NC(=O)CCNS(=O)(=O)c2ccc3c(c2)CCCC(=O)N3)ccc1Br`: the “activity change, negative = cytotoxicity” value was inactive: -3.57%.

For `CCCCC(CC)CNC(=O)CN(C)S(=O)(=O)c1ccc2c(c1)c(=O)n(C)c(=O)n2C` (configuration not stated), the “activity change, negative = cytotoxicity” value is inactive: -13.1%.

Take `CCc1ccc(CNCc2c(C(=O)O)c(C)n(Cc3c(F)cccc3Cl)c2C)cc1`: the “activity change, negative = cytotoxicity” value was inactive: -5.42%.

As for `CCOc1cccc(C(=O)N(Cc2ccc(N(C)C)cc2)CC2CCCO2)c1` (configuration not stated), the “activity change, negative = cytotoxicity” value is inactive: 10.3%.

Turning to `COc1cccc(-n2c(=O)c3c(C)c(C)sc3n(CC(=O)Nc3ccccc3OC)c2=O)c1`, the “activity change, negative = cytotoxicity” value is inactive: 12.2%.

As to `Nc1nc(SCC(=O)Nc2cccc(C(F)(F)F)c2)n[nH]1`, the “activity change, negative = cytotoxicity” value is inactive: -4.24%.

Consider `CCOC(=O)c1c(-c2ccc(C)cc2)csc1NC(=O)c1cc(-c2ccc(Cl)cc2)on1`, for which the “activity change, negative = cytotoxicity” value was inactive: -0.131%.

On to `CCOc1ccc(N(C(=O)c2ccccc2F)S(=O)(=O)c2ccc3c(c2)n(C)c(=O)n3C)cc1`, for which the “activity change, negative = cytotoxicity” value was inactive: -1.01%.

For `Cc1ccc(C(=O)CCC(=O)Nc2ccc(C)cc2C)cc1`, the “activity change, negative = cytotoxicity” value was inactive: 0.382%.

Turning to `CCc1ccccc1NC(=O)N1CCC(CN2CCc3ccccc3C2)CC1`, the “activity change, negative = cytotoxicity” value is inactive: 19.6%.

For `Cc1cc(C)cc(NS(=O)(=O)c2ccc(-n3cccn3)cc2)c1`, the “activity change, negative = cytotoxicity” value is inactive: 10.4%.

In the case of `COCCCNC(=O)c1oc2c(c1C)-c1nn(Cc3ccc(Cl)cc3)cc1CC2`, the “activity change, negative = cytotoxicity” value is inactive: -14.3%.

Turning to `COc1ccc(-c2cccc(NS(=O)(=O)c3ccc(C)s3)c2)nn1`, the “activity change, negative = cytotoxicity” value was inactive: 2.16%.

Consider `CC1CCC(Nc2ncnc3onc(-c4ccc(F)cc4)c23)CC1` (configuration not stated), for which the “activity change, negative = cytotoxicity” value was inactive: -17.3%.

`O=C(O)c1c(-c2ccccc2)oc2ccc(OCc3ccc(Cl)c(Cl)c3)cc12`: the “activity change, negative = cytotoxicity” value was inactive: -0.619%.

Regarding `CCOc1cc(CNc2ccc(C(=O)O)cc2)ccc1OCc1ccccc1`, the “activity change, negative = cytotoxicity” value is inactive: 22.3%.

In the case of `Cc1ccc(OCC(=O)N(Cc2ccco2)C2CCS(=O)(=O)C2)cc1` (configuration not stated), the “activity change, negative = cytotoxicity” value is inactive: -8.25%.

With `CC(Oc1ccc(F)cc1)C(=O)Nc1cc(-c2ccc(F)c(F)c2)no1` (configuration not stated), the “activity change, negative = cytotoxicity” value is inactive: 8.81%.

With `COC(=O)c1c(NC(=O)COc2cc(C)c(Cl)c(C)c2)sc2c1CCCC2`, the “activity change, negative = cytotoxicity” value was inactive: -1.86%.

Consider `COc1ccc(OC)c(S(=O)(=O)Nc2cc3c(C(C)=O)c(C)oc3c3ccccc23)c1`, for which the “activity change, negative = cytotoxicity” value was inactive: -29.1%.

Take `COc1cccc(C2CC(=O)Nc3c2c(=O)n(C)c2ncnn32)c1OC` (configuration not stated): the “activity change, negative = cytotoxicity” value was inactive: -0.618%.

With `COc1ccc(CNC(=O)c2ccc3[nH]c(C)c(C)c3c2)c(OC)c1`, the “activity change, negative = cytotoxicity” value was inactive: 4.2%.

As to `COc1ccc(C(=O)Nc2ccc(OCc3cc(=O)n4ccccc4n3)cc2)cc1`, the “activity change, negative = cytotoxicity” value was inactive: 2.59%.

For the molecule `CCOc1ccc(CCNC(=O)c2c(C)oc3ncnc(N4CCOCC4)c23)cc1`, the “activity change, negative = cytotoxicity” value is inactive: 8.81%.

The values are drawn from PubChem BioAssay AID1508642 (National Center for Advancing Translational Sciences (NCATS), 2021).
